{"source": "PubChem BioAssay AID488969", "about": "(Vanderbilt High Throughput Screening Facility, 2010)", "note": "Over roughly 110,000 compounds, “z-score” has its median near -0.1; the highest 2% begin near 2. This is one part of the list. Activity calls are given as the source filed them.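 How the source made its calls: active means z-score in the third read window above 3 or below -3; inactive means the rest.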", "data": [{"biological_target": "Metabotropic glutamate receptor 8 (Rattus norvegicus) (UniProt P70579)", "sequence (P70579 whole entry, looked up)": "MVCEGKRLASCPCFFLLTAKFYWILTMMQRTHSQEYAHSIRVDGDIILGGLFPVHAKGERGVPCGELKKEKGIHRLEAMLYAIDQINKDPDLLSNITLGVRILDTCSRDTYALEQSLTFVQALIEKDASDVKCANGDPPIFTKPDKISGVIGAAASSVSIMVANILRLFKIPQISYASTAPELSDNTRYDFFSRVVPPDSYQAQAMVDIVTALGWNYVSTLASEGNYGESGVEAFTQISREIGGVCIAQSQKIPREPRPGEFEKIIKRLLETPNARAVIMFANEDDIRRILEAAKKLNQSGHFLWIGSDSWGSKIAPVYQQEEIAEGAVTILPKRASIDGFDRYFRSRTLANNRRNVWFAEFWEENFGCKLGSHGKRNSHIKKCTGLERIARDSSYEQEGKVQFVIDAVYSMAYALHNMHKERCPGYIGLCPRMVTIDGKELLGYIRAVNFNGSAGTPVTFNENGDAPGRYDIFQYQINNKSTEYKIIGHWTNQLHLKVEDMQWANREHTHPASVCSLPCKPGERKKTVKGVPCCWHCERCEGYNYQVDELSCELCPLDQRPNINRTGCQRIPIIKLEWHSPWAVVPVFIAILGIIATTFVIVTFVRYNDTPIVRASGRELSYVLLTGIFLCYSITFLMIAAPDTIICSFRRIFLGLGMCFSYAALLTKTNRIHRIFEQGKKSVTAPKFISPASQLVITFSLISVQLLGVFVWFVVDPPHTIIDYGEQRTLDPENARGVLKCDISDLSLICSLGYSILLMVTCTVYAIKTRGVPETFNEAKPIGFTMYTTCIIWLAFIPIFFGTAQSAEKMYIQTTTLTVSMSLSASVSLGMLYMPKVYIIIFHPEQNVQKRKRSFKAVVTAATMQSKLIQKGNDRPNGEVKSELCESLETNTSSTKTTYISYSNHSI", "experiment": "rat mGluR8 modulators via GIRK flux, primary screen, cell-based, thallium flux, HTS (AID 488969)", "settings": "HEK293 rat mGluR8, GIRK (G protein-gated inwardly rectifying potassium channel) thallium flux, FluoZin2; at 10 µM; stronger effect = higher value; submaximal glutamate (EC20) added with thallium", "values": [{"smiles": "Cc1ccccc1NC(=O)c1cc(S(=O)(=O)N2CCCCC2)cs1", "z-score": -0.216}, {"smiles": "CC(=O)c1cccc(NS(=O)(=O)N2CCCCC2)c1", "z-score": 0.0646}, {"smiles": "Nc1c(C(=O)OCC2CCCO2)c2nc3ccccc3nc2n1C1CCCCC1", "note": "(configuration not stated)", "z-score": -0.431}, {"smiles": "COc1ccc(-c2nc(C#N)c(NC(C)C)o2)cc1", "z-score": -0.503}, {"smiles": "S=C(Nc1ccc(Oc2ccccc2)cc1)NC1CCCC1", "z-score": "active: 7.92"}, {"smiles": "O=C(O)c1ccc(S(=O)(=O)Cc2ccccc2)cc1", "z-score": 0.038}, {"smiles": "Cc1ccc(C)c(-n2c(C)cc(/C=N/NC(=O)c3c(C)nc4cc(C)ccn34)c2C)c1", "z-score": -0.281}, {"smiles": "Nc1nc2ccccc2n1C(=O)c1ccco1", "z-score": 0.192}, {"smiles": "N#Cc1nc(-c2ccc(Cl)cc2)oc1NCc1ccco1", "z-score": -0.125}, {"smiles": "COc1ccc(C(=O)COC(=O)CNC(=O)c2cc(OC)cc(OC)c2)cc1", "z-score": -0.208}, {"smiles": "COc1ccc(NC(=O)/C(=C\\c2ccc(OS(=O)(=O)c3ccc(C)cc3)cc2)NC(=O)c2ccccc2)cc1", "z-score": -0.0466}, {"smiles": "COc1ccc(C(=O)NC(C)c2nnc(SCc3ccc(Cl)c(Cl)c3)n2C)cc1", "note": "(configuration not stated)", "z-score": -0.0457}, {"smiles": "CC(OC(=O)CCc1nc2ccccc2c(=O)[nH]1)C(=O)NC1CCCC1", "note": "(configuration not stated)", "z-score": -0.356}, {"smiles": "O=C(NNC(=O)c1sccc1-n1cccc1)c1cccc(Cl)c1", "z-score": "active: 4.1"}, {"smiles": "CCCCS(=O)(=O)Nc1ccc2ncn(C)c(=O)c2c1", "z-score": 0.477}, {"smiles": "NC(=O)c1c(NC(=O)c2ccco2)sc2c1CCC2", "z-score": 1.41}, {"smiles": "S=c1[nH]nc(-c2ccc(Cl)cc2)n1-c1ccc2c(c1)OCCO2", "z-score": -0.419}, {"smiles": "CN(C)CC(O)COc1ccc(C(C)(C)c2ccc(OCC(O)CN(C)C)cc2)cc1", "note": "(configuration not stated)", "z-score": 0.615}, {"smiles": "Cc1ccc(C(=O)NN2C(=O)CSC2=S)cc1", "z-score": -0.108}, {"smiles": "CN(C)c1ccc(C2OC(=O)C(C)(C)C(=O)C2(C)C)cc1", "note": "(configuration not stated)", "z-score": 0.264}, {"smiles": "Cc1cccnc1NC(=O)c1c(O)c2ccccc2n(C)c1=O", "z-score": 0.0459}, {"smiles": "Cc1nn2c(nc(N3CCCCC3)c3ccccc32)c1C=O", "z-score": -0.324}, {"smiles": "Cc1cccc(NC(=S)Nc2ccccn2)c1C", "z-score": 0.00896}, {"smiles": "COc1ccc(Cl)cc1N1CC(c2nc3ccccc3[nH]2)CC1=O", "note": "(configuration not stated)", "z-score": -0.34}, {"smiles": "O=C1C2CCCN2C(c2ccc(F)cc2)N1c1ccc(Cl)cc1", "note": "(configuration not stated)", "z-score": -0.573}, {"smiles": "Fc1ccc(Cn2nnnc2CN2CCN(C3CCCC3)CC2)cc1", "z-score": 0.209}, {"smiles": "CC1CN(c2ccccc2)C(=O)CS1", "note": "(configuration not stated)", "z-score": 0.219}, {"smiles": "COc1cc(/C=C2/SC(=S)N(CC(=O)Nc3nc4ccccc4s3)C2=O)cc(OC)c1OC", "z-score": -0.195}, {"smiles": "O/N=C1\\CCc2cc(Cl)ccc21", "z-score": 0.365}, {"smiles": "O=C(Nc1nc2ccc3ccccc3c2s1)c1ccc(N2CCCCC2)c([N+](=O)[O-])c1", "z-score": -0.197}, {"smiles": "Cc1cc(NC(=O)C2CC(c3ccc(F)cc3)=NO2)no1", "note": "(configuration not stated)", "z-score": 0.0549}, {"smiles": "CCc1nc2sc3ccccc3c(=O)c2c(=O)n1CCOC", "z-score": 0.000298}]}]}
